The other results are listed elsewhere or left out.
What was measured:
Experiment in all cases: glycan array binding signal (z-score within array); higher = stronger binding
Conditions in all cases: glycan notation: IUPAC condensed, linker removed
[1] = target: GlcNAc(b1-4)GlcNAc(b1-4)GlcNAc(b1-4)GlcNAc(b1-4)GlcNAc(b1-4)GlcNAc
In short: (§1)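 The binding signal is a Z-score computed within each array. Data were drawn from 3228 arrays in the Consortium for Functional Glycomics database, restricted to those with a known protein sequence. Scores were averaged over arrays of the same protein sequence at different concentrations or buffers, and over linkers, and negative values can be taken as non-binding.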

[2] = target: GlcNAc(b1-4)[GlcNAc(b1-6)]GalNAc
In short: as §1

[3] = target: GlcNAc(b1-6)Gal(b1-4)GlcNAc
In short: as §1

GlcNAc(b1-6)GalNAc = target: GlcNAc(b1-6)GalNAc
In short: as §1

GlcNAc3Prop(b1-4)GlcNAc = target: GlcNAc3Prop(b1-4)GlcNAc
In short: as §1

Kdn(a2-3)Gal(b1-3)GlcNAc = target: Kdn(a2-3)Gal(b1-3)GlcNAc
In short: as §1

Kdn(a2-3)Gal(b1-4)GlcNAc = target: Kdn(a2-3)Gal(b1-4)GlcNAc
In short: as §1

[4] = target: Man(a1-2)Man(a1-2)Man(a1-3)Man
In short: as §1

[5] = target: Man(a1-2)Man(a1-2)Man(a1-6)[Man(a1-3)]Man
In short: as §1

Man(a1-2)Man(a1-3)Man = target: Man(a1-2)Man(a1-3)Man
In short: as §1

[6] = target: Man(a1-2)Man(a1-3)[Man(a1-2)Man(a1-6)]Man
In short: as §1

[7] = target: Man(a1-2)Man(a1-3)[Man(a1-2)Man(a1-6)]Man(a1-6)[Man(a1-2)Man(a1-2)Man(a1-3)]Man
In short: as §1

[8] = target: Man(a1-2)Man(a1-3)[Man(a1-2)Man(a1-6)]Man(a1-6)[Man(a1-2)Man(a1-2)Man(a1-3)]Man(b1-4)GlcNAc(b1-4)GlcNAc
In short: as §1

[9] = target: Man(a1-2)Man(a1-3)[Man(a1-6)]Man(a1-6)[Man(a1-2)Man(a1-3)]Man(b1-4)GlcNAc(b1-4)GlcNAc
In short: as §1

[10] = target: Man(a1-2)Man(a1-6)[Man(a1-3)]Man(a1-6)[Man(a1-2)Man(a1-2)Man(a1-3)]Man
In short: as §1

[11] = target: Man(a1-2)Man(a1-6)[Man(a1-3)]Man(a1-6)[Man(a1-2)Man(a1-2)Man(a1-3)]Man(b1-4)GlcNAc(b1-4)GlcNAc
In short: as §1

Man(a1-3)[Man(a1-6)]Man = target: Man(a1-3)[Man(a1-6)]Man
In short: as §1

[12] = target: Man(a1-3)[Man(a1-6)]Man(a1-6)[Man(a1-2)Man(a1-3)]Man(b1-4)GlcNAc(b1-4)GlcNAc
In short: as §1

[13] = target: Man(a1-3)[Man(a1-6)]Man(a1-6)[Man(a1-3)]Man
In short: as §1

[14] = target: Man(a1-3)[Man(a1-6)]Man(a1-6)[Man(a1-3)]Man(b1-4)GlcNAc(b1-4)GlcNAc
In short: as §1

[15] = target: Man(a1-3)[Man(a1-6)]Man(b1-4)GlcNAc(b1-4)GlcNAc
In short: as §1

Man(a1-6)Man = target: Man(a1-6)Man
In short: as §1

Man(b1-4)GlcNAc = target: Man(b1-4)GlcNAc
In short: as §1

Neu5Ac(a2-3)Gal = target: Neu5Ac(a2-3)Gal
In short: as §1

[16] = target: Neu5Ac(a2-3)Gal(b1-3)GalNAc
In short: as §1

[17] = target: Neu5Ac(a2-3)Gal(b1-3)GalNAc(b1-3)Gal(a1-4)Gal(b1-4)Glc
In short: as §1

[18] = target: Neu5Ac(a2-3)Gal(b1-3)GalNAc(b1-3)Gal(b1-4)GlcNAc
In short: as §1

[19] = target: Neu5Ac(a2-3)Gal(b1-3)GalNAc(b1-4)[Neu5Ac(a2-3)]Gal(b1-4)Glc
In short: as §1

[20] = target: Neu5Ac(a2-3)Gal(b1-3)GalNAc6S
In short: as §1

[21] = target: Neu5Ac(a2-3)Gal(b1-3)GlcNAc
In short: as §1

[22] = target: Neu5Ac(a2-3)Gal(b1-3)GlcNAc(b1-3)Gal(b1-3)GlcNAc
In short: as §1

[23] = target: Neu5Ac(a2-3)Gal(b1-3)GlcNAc6S
In short: as §1

[24] = target: Neu5Ac(a2-3)Gal(b1-3)[Fuc(a1-4)]GlcNAc
In short: as §1

[25] = target: Neu5Ac(a2-3)Gal(b1-3)[Fuc(a1-4)]GlcNAc(b1-3)Gal(b1-4)[Fuc(a1-3)]GlcNAc
In short: as §1

[26] = target: Neu5Ac(a2-3)Gal(b1-3)[Neu5Ac(a2-3)Gal(b1-4)]GlcNAc
In short: as §1

[27] = target: Neu5Ac(a2-3)Gal(b1-3)[Neu5Ac(a2-6)]GalNAc
In short: as §1

Neu5Ac(a2-3)Gal(b1-4)Glc = target: Neu5Ac(a2-3)Gal(b1-4)Glc
In short: as §1

[28] = target: Neu5Ac(a2-3)Gal(b1-4)GlcNAc
In short: as §1

[29] = target: Neu5Ac(a2-3)Gal(b1-4)GlcNAc(b1-2)Man(a1-3)[GlcNAc(b1-2)Man(b1-4)GlcNAc(b1-2)Man(a1-6)]Man(b1-4)GlcNAc(b1-4)GlcNAc
In short: as §1

[30] = target: Neu5Ac(a2-3)Gal(b1-4)GlcNAc(b1-2)Man(a1-3)[Neu5Ac(a2-3)Gal(b1-4)GlcNAc(b1-2)Man(a1-6)]Man(b1-4)GlcNAc(b1-4)GlcNAc
In short: as §1

[31] = target: Neu5Ac(a2-3)Gal(b1-4)GlcNAc(b1-2)Man(a1-3)[Neu5Ac(a2-6)Gal(b1-4)GlcNAc(b1-2)Man(a1-6)]Man(b1-4)GlcNAc(b1-4)GlcNAc
In short: as §1

[32] = target: Neu5Ac(a2-3)Gal(b1-4)GlcNAc(b1-3)Gal(b1-3)GlcNAc
In short: as §1

[33] = target: Neu5Ac(a2-3)Gal(b1-4)GlcNAc(b1-3)Gal(b1-4)GlcNAc
In short: as §1

[34] = target: Neu5Ac(a2-3)Gal(b1-4)GlcNAc(b1-3)Gal(b1-4)GlcNAc(b1-3)Gal(b1-4)GlcNAc
In short: as §1

[35] = target: Neu5Ac(a2-3)Gal(b1-4)GlcNAc(b1-3)Gal(b1-4)[Fuc(a1-3)]GlcNAc
In short: as §1

[36] = target: Neu5Ac(a2-3)Gal(b1-4)GlcNAc(b1-6)[Gal(b1-3)]GalNAc
In short: as §1

[37] = target: Neu5Ac(a2-3)Gal(b1-4)GlcNAc(b1-6)[Neu5Ac(a2-3)Gal(b1-3)]GalNAc
In short: as §1

[38] = target: Neu5Ac(a2-3)Gal(b1-4)GlcNAc6S
In short: as §1

[39] = target: Neu5Ac(a2-3)Gal(b1-4)[Fuc(a1-3)]GlcNAc
In short: as §1

[40] = target: Neu5Ac(a2-3)Gal(b1-4)[Fuc(a1-3)]GlcNAc(b1-3)Gal
In short: as §1

[41] = target: Neu5Ac(a2-3)Gal(b1-4)[Fuc(a1-3)]GlcNAc(b1-3)Gal(b1-4)GlcNAc
In short: as §1

[42] = target: Neu5Ac(a2-3)Gal(b1-4)[Fuc(a1-3)]GlcNAc(b1-3)Gal(b1-4)[Fuc(a1-3)]GlcNAc(b1-3)Gal(b1-4)[Fuc(a1-3)]GlcNAc
In short: as §1

[43] = target: Neu5Ac(a2-3)Gal(b1-4)[Fuc(a1-3)]GlcNAc(b1-6)[Gal(b1-3)]GalNAc
In short: as §1

[44] = target: Neu5Ac(a2-3)Gal(b1-4)[Fuc(a1-3)]GlcNAc6S
In short: as §1

[45] = target: Neu5Ac(a2-3)Gal6S(b1-4)GlcNAc
In short: as §1

[46] = target: Neu5Ac(a2-3)Gal6S(b1-4)[Fuc(a1-3)]GlcNAc
In short: as §1

Neu5Ac(a2-3)GalNAc = target: Neu5Ac(a2-3)GalNAc
In short: as §1

[47] = target: Neu5Ac(a2-3)GalNAc(b1-4)GlcNAc
In short: as §1

[48] = target: Neu5Ac(a2-3)[GalNAc(b1-4)]Gal(b1-4)Glc
In short: as §1

[49] = target: Neu5Ac(a2-3)[GalNAc(b1-4)]Gal(b1-4)GlcNAc
In short: as §1

B1: E-Selectin (Homo sapiens), P16581 (protein)
chain: MIASQFLSALTLVLLIKESGAWSYNTSTEAMTYDEASAYCQQRYTHLVAIQNKEEIEYLNSILSYSPSYYWIGIRKVNNVWVWVGTQKPLTEEAKNWAPGEPNNRQKDEDCVEIYIKREKDVGMWNDERCSKKKLALCYTAACTNTSCSGHGECVETINNYTCKCDPGFSGLKCEQIVNCTALESPEHGSLVCSHPLGNFSYNSSCSISCDRGYLPSSMETMQCMSSGEWSAPIPACNVVECDAVTNPANGFVECFQNPGSFPWNTTCTFDCEEGFELMGAQSLQCTSSGNWDNEKPTCKAVTCRAVRQPQNGSVRCSHSPAGEFTFKSSCNFTCEEGFMLQGPAQVECTTQGQWTQQIPVCEAFQCTALSNPERGYMNCLPSASGSFRYGSSCEFSCEQGFVLKGSKRLQCGPTGEWDNEKPTCEAVRCDAVHQPPKGLVRCAHSPIGEFTYKSSCAFSCEEGFELHGSTQLECTSQGQWTEEVPSCQVVKCSSLAVPGKINMSCSGEPVFGTVCKFACPEGWTLNGSAARTCGATGHWSGLLPTCEAPTESNIPLVAGLSAAGLSLLTLAPFLLWLRKCLRKAKKFVPASSCQSLESDGSYQKPSYIL
- glycan array binding signal (z-score) [1]: -0.075
- glycan array binding signal (z-score) [2]: -0.217
- glycan array binding signal (z-score) [3]: -0.161
- glycan array binding signal (z-score) (GlcNAc(b1-6)GalNAc): -0.302
- glycan array binding signal (z-score) (GlcNAc3Prop(b1-4)GlcNAc): 0.018
- glycan array binding signal (z-score) (Kdn(a2-3)Gal(b1-3)GlcNAc): -0.154
- glycan array binding signal (z-score) (Kdn(a2-3)Gal(b1-4)GlcNAc): -0.076
- glycan array binding signal (z-score) [4]: -0.167
- glycan array binding signal (z-score) [5]: -0.211
- glycan array binding signal (z-score) (Man(a1-2)Man(a1-3)Man): -0.221
- glycan array binding signal (z-score) [6]: -0.035
- glycan array binding signal (z-score) [7]: -0.201
- glycan array binding signal (z-score) [8]: -0.078
- glycan array binding signal (z-score) [9]: -0.294
- glycan array binding signal (z-score) [10]: -0.102
- glycan array binding signal (z-score) [11]: -0.148
- glycan array binding signal (z-score) (Man(a1-3)[Man(a1-6)]Man): -0.277
- glycan array binding signal (z-score) [12]: -0.13
- glycan array binding signal (z-score) [13]: -0.209
- glycan array binding signal (z-score) [14]: -0.069
- glycan array binding signal (z-score) [15]: -0.141
- glycan array binding signal (z-score) (Man(a1-6)Man): 0.01
- glycan array binding signal (z-score) (Man(b1-4)GlcNAc): -0.072
- glycan array binding signal (z-score) (Neu5Ac(a2-3)Gal): 0.101
- glycan array binding signal (z-score) [16]: -0.06
- glycan array binding signal (z-score) [17]: -0.173
- glycan array binding signal (z-score) [18]: -0.006
- glycan array binding signal (z-score) [19]: 0.039
- glycan array binding signal (z-score) [20]: 0.154
- glycan array binding signal (z-score) [21]: -0.084
- glycan array binding signal (z-score) [22]: -0.157
- glycan array binding signal (z-score) [23]: 0.08
- glycan array binding signal (z-score) [24]: 9.04
- glycan array binding signal (z-score) [25]: 3.76
- glycan array binding signal (z-score) [26]: -0.137
- glycan array binding signal (z-score) [27]: -0.087
- glycan array binding signal (z-score) (Neu5Ac(a2-3)Gal(b1-4)Glc): -0.029
- glycan array binding signal (z-score) [28]: -0.045
- glycan array binding signal (z-score) [29]: 0.027
- glycan array binding signal (z-score) [30]: -0.122
- glycan array binding signal (z-score) [31]: -0.202
- glycan array binding signal (z-score) [32]: 0.103
- glycan array binding signal (z-score) [33]: -0.054
- glycan array binding signal (z-score) [34]: 0.038
- glycan array binding signal (z-score) [35]: -0.089
- glycan array binding signal (z-score) [36]: -0.157
- glycan array binding signal (z-score) [37]: -0.234
- glycan array binding signal (z-score) [38]: 0.37
- glycan array binding signal (z-score) [39]: 0.286
- glycan array binding signal (z-score) [40]: 3.07
- glycan array binding signal (z-score) [41]: 0.243
- glycan array binding signal (z-score) [42]: 0.081
- glycan array binding signal (z-score) [43]: -0.024
- glycan array binding signal (z-score) [44]: 0.171
- glycan array binding signal (z-score) [45]: 0.072
- glycan array binding signal (z-score) [46]: 0.067
- glycan array binding signal (z-score) (Neu5Ac(a2-3)GalNAc): 0.035
- glycan array binding signal (z-score) [47]: -0.106
- glycan array binding signal (z-score) [48]: -0.136
- glycan array binding signal (z-score) [49]: -0.079
